For assay [1], the target named is T1, BDA1* HMHA2* ST-CDAN1 (human) (UniProt Q8IWY9).
T1 sequence: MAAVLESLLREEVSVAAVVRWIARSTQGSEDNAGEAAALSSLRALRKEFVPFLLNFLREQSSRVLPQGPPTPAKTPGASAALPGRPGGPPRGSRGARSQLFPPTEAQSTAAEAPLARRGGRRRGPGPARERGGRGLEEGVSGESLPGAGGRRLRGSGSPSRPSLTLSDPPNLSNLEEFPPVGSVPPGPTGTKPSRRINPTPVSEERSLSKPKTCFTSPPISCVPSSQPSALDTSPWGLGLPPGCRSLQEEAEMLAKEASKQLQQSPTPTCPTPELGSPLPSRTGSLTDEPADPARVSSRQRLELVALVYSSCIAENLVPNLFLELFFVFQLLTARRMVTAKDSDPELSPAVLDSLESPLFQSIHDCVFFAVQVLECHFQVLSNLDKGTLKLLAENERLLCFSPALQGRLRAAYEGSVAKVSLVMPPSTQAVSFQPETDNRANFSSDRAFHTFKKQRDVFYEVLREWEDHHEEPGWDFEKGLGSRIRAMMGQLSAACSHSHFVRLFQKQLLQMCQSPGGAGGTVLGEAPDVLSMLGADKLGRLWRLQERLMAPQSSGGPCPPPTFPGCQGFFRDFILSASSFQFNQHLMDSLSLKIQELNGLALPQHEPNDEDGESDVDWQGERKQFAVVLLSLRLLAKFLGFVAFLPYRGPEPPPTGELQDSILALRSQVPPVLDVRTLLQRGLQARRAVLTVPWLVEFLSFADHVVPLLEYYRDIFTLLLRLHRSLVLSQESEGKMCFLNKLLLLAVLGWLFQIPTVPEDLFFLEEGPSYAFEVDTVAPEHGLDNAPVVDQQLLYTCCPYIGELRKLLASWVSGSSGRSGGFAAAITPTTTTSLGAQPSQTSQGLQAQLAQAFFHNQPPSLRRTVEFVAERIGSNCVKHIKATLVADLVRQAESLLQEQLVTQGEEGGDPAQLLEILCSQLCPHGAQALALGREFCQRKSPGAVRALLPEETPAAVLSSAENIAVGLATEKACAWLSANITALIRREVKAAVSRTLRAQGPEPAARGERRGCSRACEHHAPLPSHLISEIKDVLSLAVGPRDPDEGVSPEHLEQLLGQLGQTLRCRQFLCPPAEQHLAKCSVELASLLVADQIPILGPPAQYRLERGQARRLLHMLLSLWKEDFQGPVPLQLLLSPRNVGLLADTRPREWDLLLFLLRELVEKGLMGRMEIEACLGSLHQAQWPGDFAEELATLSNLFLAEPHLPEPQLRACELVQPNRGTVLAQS
Kind of assay: pull-down; Strep-Tactin pulldown of transiently transfected ST-CDAN1 variants from Flp-In 293 T-REx lysates; endogenous ASF1A, ASF1B and CDIN1 detected by immunoblotting; IP buffer with 1% Triton X-100, 1 hr at 4 °C. On the technique in general: In western blotting, separated proteins are transferred to a membrane and probed.

Chains of the proteins cited; added tags and fusions are not shown.
UniProt Q9Y294: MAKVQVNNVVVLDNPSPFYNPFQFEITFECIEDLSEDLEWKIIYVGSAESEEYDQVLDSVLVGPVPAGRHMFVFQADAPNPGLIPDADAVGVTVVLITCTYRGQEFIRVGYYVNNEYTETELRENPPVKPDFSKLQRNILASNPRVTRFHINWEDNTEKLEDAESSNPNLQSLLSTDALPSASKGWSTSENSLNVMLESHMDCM
UniProt Q9NVP2: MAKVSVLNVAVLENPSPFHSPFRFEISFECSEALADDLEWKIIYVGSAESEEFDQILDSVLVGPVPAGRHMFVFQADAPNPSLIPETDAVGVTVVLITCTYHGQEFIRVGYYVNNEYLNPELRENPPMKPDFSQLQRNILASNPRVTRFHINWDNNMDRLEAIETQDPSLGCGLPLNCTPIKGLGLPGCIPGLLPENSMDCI

Assay [2] concerns the target T2, HMHA2* BDA2* ST-CDAN1 (human) (UniProt Q8IWY9).
T2 sequence: T1 sequence with S194A, R195A, R196A, A824M, A825R, A826K
The assay is described as above.

Changes are numbered by the printed parent chain. These are yes or no findings as the source states them, for the method shown. In cells and extracts the contact can be indirect. Some entries that bind do so weakly or less than the wild type.

“endogenous ASF1A (from UniProt Q9Y294 1-204)”: the binding entry in assay [1] and in assay [2] was “binds” in each case.

Take “endogenous ASF1B (from UniProt Q9NVP2 1-202)”: the binding entry in assay [1] and in assay [2] was “binds” each time.

These data come from paper PMC11911400, “Mechanism of ASF1 engagement by CDAN1” (Nature Communications, 2025).
